# Data as given in PubChem BioAssay AID1508624 (National Center for Advancing Translational Sciences (NCATS), 2021).
# About 120 (0.25%) of roughly 48,000 compounds were called active. Roughly 4% stayed inconclusive and do not appear here. Calls follow the shape of the dose curve; as a rule, active = well fitted activation curve with a large enough effect; inconclusive = small, poorly fitted or top-dose-only effect, or another doubt; inactive = no such curve, though single readings can be large or run the other way. The list shows a part of the results.
# Assay: Primary qHTS for Identification of Small Molecule Activators of Huntingtin-Antisense Promoter Activity; also: nearly all actives have a fitted effect of over 55% in size
# Settings: HEK293 HTT-AS promoter firefly luciferase reporter (activity 0% = vehicle and -100% = no light), 24 h; series mostly up to 57.5 µM; activity change, positive = activation: at the top concentration
# Procedure, shortened: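 HEK293 Fluc reporter, 2,500 cells/well, 24 h pre-culture; cpds up to 57.5 uM final, 24 h 37 degrees C; Dual-Glo, 10 min RT; normalized vehicle = 0%, zero RLU = -100%.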
row,SMILES,"activity change, positive = activation"
1,CCOc1ccccc1NC(=O)C(=O)NCC(c1cccnc1)N1CCN(c2ccccc2)CC1 (stereo not drawn),inactive: -25.7%
2,COc1ccc(C)cc1NC(=O)Cc1ccc(NC(=O)N2CCCCc3ccccc32)cc1,inactive: -8.41%
3,Cc1ccc2nc(NCCc3ccc(Cl)cc3)c3nncn3c2c1,inactive: -10.6%
4,Cc1ccc(C)c(Oc2c(C(F)(F)F)oc3c(CN4CCN(C)CC4)c(O)ccc3c2=O)c1,inactive: 12.1%
5,CC(C)c1ccc(Nc2c(-c3ccsc3)nc3ccc(Cl)cn23)cc1,inactive: 22.4%
6,CCOC(=O)C1=C(CN(C)Cc2ccccc2)NC(=O)NC1c1ccc(OC(C)C)cc1 (stereo not drawn),inactive: -38.9%
7,CCn1cc(C(=O)NCc2ccccc2Cl)c(=O)c2cc(S(=O)(=O)N3CCOCC3)ccc21,inactive: -3.61%
8,C[C@@H]1C[C@H]2[C@@H]3CCC4=CC(=O)C=C[C@]4(C)[C@@]3(F)[C@@H](O)C[C@]2(C)[C@H]1C(=O)CO,inactive: -12.6%
9,C#CC(C)(CC)OC(=O)c1ccccc1C(=O)O (stereo not drawn),inactive: 0.579%
10,CCC(=O)C1=C(c2ccccc2)N(C(=O)CC)n2c(nnc2C2CCCCC2)S1,inactive: 0.283%
11,O=C(Nc1ccccc1[N+](=O)[O-])c1csnn1,inactive: 6.26%
12,Cc1nn(C)c2c1c(C(F)(F)F)cc(=O)n2C(C)C(=O)NCc1ccccc1 (stereo not drawn),inactive: -10.7%
13,CCOCCc1nn2c(=O)cc(COC(=O)c3ccc4c(c3)OCO4)nc2s1,inactive: -3.89%
14,O=S(=O)(c1ccc(Br)cc1)N1CCn2cccc2C1c1ccc(Br)cc1 (stereo not drawn),inactive: -19.7%
15,COc1ccc(-c2nc(CS(=O)CC(=O)NCc3ccccc3Cl)c(C)o2)cc1OC (stereo not drawn),inactive: -4.41%
16,O=C(c1ccco1)N1CCNCC1,inactive: -2.24%
17,Cn1c(C(=O)Nc2cccc(Cl)c2)cc2c(=O)n(C)c3ccccc3c21,inactive: -6.92%
18,Cc1ccc(-c2cn3c(n2)sc2cc(C(=O)NC4CCCCCC4)ccc23)c(C)c1,inactive: 4.8%
19,Cc1oc2c(c(C)cc3oc(=O)c(CC(=O)NCCc4ccc(Cl)cc4)c(C)c32)c1C,inactive: -5.47%
20,Cc1cccc(NC(c2nnc(-c3ccccc3)o2)c2ccc(F)cc2Cl)c1C (stereo not drawn),inactive: -26.2%
21,Cc1ccc(Cl)cc1N1CCN(C(=O)C2CCN(S(=O)(=O)c3c(C)noc3/C=C/c3ccccc3F)CC2)CC1,inactive: -5.29%
22,CC(C)c1nn2c(=O)cc(COC(=O)COc3ccccc3F)nc2s1,inactive: 17.5%
23,CCc1ccccc1NC(=O)CSc1nc2ccccc2nc1Cc1cccc(OC)c1,inactive: -5.78%
24,O=C(NCc1ccccc1)c1ccc2c(c1)sc1nc(-c3ccc(F)cc3)cn12,inactive: 12.2%

row,SMILES,"activity change, positive = activation"
1,COc1cccc(-c2cn3c(n2)sc2cc(C(=O)NCCc4ccccc4)ccc23)c1,inactive: 19.4%
2,CCCN(C(=O)Cn1nc(Cc2cccnc2)c2ccccc2c1=O)c1ccc(C(C)C)cc1,inactive: -44.9%
3,CCN(CC)C(=O)Nc1ccc(OCC(O)CNC(C)(C)C)c(C(C)=O)c1 (stereo not drawn),inactive: -2.76%
4,COc1ccc(CCNC(=O)c2cc(-c3ccc(C)c(C)c3)nc3ccccc23)cc1OC,inactive: 0%
5,CCCn1c2ccc(C)cc2c2nnc(SCCN3CCCCC3)nc21,inactive: -15.1%
6,Cc1ccc(S(=O)(=O)Nc2nc3n(n2)C(c2ccc(Cl)cc2)C=C(c2ccccc2)N3)cc1 (stereo not drawn),inactive: -14%
7,O=C(CN1C(=O)CC(c2ccco2)Sc2ccccc21)Nc1ccc(OC(F)(F)F)cc1 (stereo not drawn),inactive: -20.5%
8,CCOc1ccc(C2CC(=O)c3c([nH]c(C(=O)OC4CCCCCC4)c3C)C2)cc1 (stereo not drawn),inactive: -12.1%
9,COc1ccc(C(=O)NCC(c2cccs2)S(=O)(=O)c2cccs2)cc1 (stereo not drawn),inactive: -24.3%
10,Cc1ccc(NC(=O)[C@H](Cc2ccccc2)N2Cc3ccccc3C2=O)cc1F,inactive: -14.1%
11,CC1=C(C(=O)OC2CCCCCC2)C(c2c(Cl)cccc2Cl)CC(=O)N1 (stereo not drawn),inactive: -45.9%
12,CCOC(=O)C1=C(CN2CCCCC2)NC(=O)NC1c1ccc(OC)cc1 (stereo not drawn),inactive: -8.08%
13,Cc1cccc(NC(=O)c2ccc(F)c(S(=O)(=O)N3CCN(c4ccc(F)cc4)CC3)c2)c1,inactive: -30.7%
14,COc1cc(OC)c(NC(=O)Nc2cc(C)on2)cc1Cl,inactive: -12.2%
15,Cc1ccc(-c2cn3c(n2)sc2cc(C(=O)NC4CCCCC4)ccc23)cc1,inactive: -7.78%
16,CCOc1ccccc1NC(=O)c1cn(C2CCCCC2)c(=O)c2c1c1ccccc1n2C,inactive: -10.3%
17,COc1ccc(CCNC(=O)CCn2c(=O)c3cccn3c3ccc(F)cc32)cc1OC,inactive: -2.68%
18,CCCCC1C(=O)N(c2ccccc2)N(c2ccc(O)cc2)C1=O (stereo not drawn),inactive: -87.2%
19,CCOC(=O)c1ccc(CN(Cc2ccc(Cl)cc2Cl)S(=O)(=O)c2cccc(Cl)c2)cc1,inactive: -19.4%
20,Cc1cc(-c2ccc(C)c(S(=O)(=O)N(C(C)C)C3CCCCC3)c2)on1,inactive: -19.8%
21,CCn1c(=O)c2c(nc(C=Cc3ccc(OC)c(OC)c3)n2C)n(CC)c1=O,inactive: -6.66%
22,CC1(C)O[C@H]2[C@@H](O1)[C@@H](C(=O)Nc1cc(F)ccc1F)O[C@@H]1OC(C)(C)O[C@@H]12,inactive: -6.82%
23,COc1cc2c(cc1OC)C(C(C(=O)N(CCc1ccc(OC)c(OC)c1OC)CCc1ccc(OC)c(OC)c1OC)c1ccccc1)=NCC2 (stereo not drawn),inactive: -17%
24,Cc1ccc2nc(N(Cc3cccnc3)C(=O)CCc3ccccc3)sc2c1,inactive: 2.81%
